{
  "source": "the supplement of paper PMC11417369",
  "note": "± gives the standard deviation of the averaged measurements. The list shows a part of the results.",
  "data": [
    {"tested_on": "PfAP2-LT AP2 domain (GST-tagged)", "experiment": "gcPBM binding intensity (ln(normalized median fluorescence intensity)); higher = stronger DNA binding", "how_it_was_run": "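Plasmodium falciparum DNA-binding domains carrying a GST tag were expressed in E. coli and applied for 1 h, at about 25 μg on average, to an Agilent 4 × 180k array. The array held primer-extended double-stranded 36-bp intergenic genomic probes together with negative controls, and binding took place in 1× PBS with 1% milk, 0.2 mg/ml BSA, 0.5% salmon testes DNA and 0.03% Triton X-100. An Alexa488 anti-GST antibody detected bound protein, and the array was scanned at 488 nm. Binding intensity is taken as the highest Masliner-normalised natural-log median intensity across replicate spots of either probe orientation.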", "values": [
      {"sequence": "ATAAATAATAAAAAATGTACACATATAAATATAAAG [XGTACX_site727]", "gcPBM binding intensity (ln)": "8.98 ± 0.53"},
      {"sequence": "ATGATGAAAATAGAAATACACACTAAAAAATAAAAT [CACACA_site1136]", "gcPBM binding intensity (ln)": "9.1 ± 0.38"},
      {"sequence": "AAAACATGTTCAACATGTACACAACAGGATGAATAT [XGTACX_site506]", "gcPBM binding intensity (ln)": "9.21 ± 0.42"},
      {"sequence": "ATATTTTTTAGGGTCACACATACTTATTATATAAAT [CACACA_site4926]", "gcPBM binding intensity (ln)": "8.74 ± 0.42"},
      {"sequence": "AATATTTAACACCTTATACACACTTTCTTCCTTTTT [CACACA_site785]", "gcPBM binding intensity (ln)": "9.13 ± 0.6"},
      {"sequence": "ATGATATGGATAAATACACACAATATAATAATGTCT [CACACA_site1433]", "gcPBM binding intensity (ln)": "9.22 ± 0.28"},
      {"sequence": "CATATATACTCATACACACACACACCGACACAGACA [CACACA_site5026]", "gcPBM binding intensity (ln)": "9.84 ± 0.17"},
      {"sequence": "TATGATGAGATAACAAAAGTTGTACTTTTTTTTTTT [CACACA_negctrl_site1172]", "gcPBM binding intensity (ln)": "8.37 ± 0.45"},
      {"sequence": "AAACGTGCGTATATGTGTACGCATATATATATATAT [XGTACX_site5252]", "gcPBM binding intensity (ln)": "10.2 ± 0.34"},
      {"sequence": "TTTATTAATTAAACCATACACACATAATTTTTTTAT [CACACA_site842]", "gcPBM binding intensity (ln)": "8.86 ± 0.51"},
      {"sequence": "AAAATTAATAAATGAGAAAAAAGGATGAATAATGAG [CACACA_negctrl_site1614]", "gcPBM binding intensity (ln)": "8.79 ± 0.49"},
      {"sequence": "AGAAAAAAAATGTATACACACAAATATAAAGAAGGA [CACACA_site3806]", "gcPBM binding intensity (ln)": "9.09 ± 0.4"},
      {"sequence": "ATCCCAGTAATATATAGTACATAACTATAAGAGAAT [XGTACX_site6909]", "gcPBM binding intensity (ln)": "9.05 ± 0.45"},
      {"sequence": "AAAGCACGCAAGAATACACACAAATATTATAAAAAA [CACACA_site6206]", "gcPBM binding intensity (ln)": "9.22 ± 0.53"},
      {"sequence": "TAAAAAATTATAAAATGTACATAAAAAAAAAAAAAA [XGTACX_site3376]", "gcPBM binding intensity (ln)": "8.55 ± 0.47"},
      {"sequence": "AGGAAAACAAAAGATGCATGCTAATTTTCCTCGCGT [TGCATGCA_site627]", "gcPBM binding intensity (ln)": "8.89 ± 0.38"},
      {"sequence": "CTGAAGAAACTACAACGTACAAAATATGTATATATT [XGTACX_site3779]", "gcPBM binding intensity (ln)": "8.96 ± 0.35"},
      {"sequence": "TAGCCCACATTTAATGGTACAGTGAGTATATATATG [XGTACX_site8044]", "gcPBM binding intensity (ln)": "8.8 ± 0.33"},
      {"sequence": "ATGGAAATAAAAAAAAAAAAAAAAAAAAATATATAT [GTGCAC_negctrl_site67]", "gcPBM binding intensity (ln)": "8.53 ± 0.54"},
      {"sequence": "TACATAAAATACCATGCATGCTAGTAAAAAAAAAAA [TGCATGCA_site650]", "gcPBM binding intensity (ln)": "8.85 ± 0.54"},
      {"sequence": "TAATATATTTATAGAGCATGCAACGTAATATTATTA [TGCATGCA_site863]", "gcPBM binding intensity (ln)": "8.96 ± 0.3"},
      {"sequence": "CAAATAGCTAGCTGTGCACACAAACATATTTTCCAA [CACACA_site879]", "gcPBM binding intensity (ln)": "9.2 ± 0.38"},
      {"sequence": "CACAAACAAAGACACACACACACACGCACAAAAATG [CACACA_site7193]", "gcPBM binding intensity (ln)": "10.3 ± 0.21"},
      {"sequence": "AAAATGCATTTGATGTGTACGCATTATAAAGAACAA [XGTACX_site4203]", "gcPBM binding intensity (ln)": "9.07 ± 0.42"}
    ]}
  ]
}
